Experiment [1] deals with T1, TIM-1 antigen expressed on ACHN cells (Homo sapiens, UniProt Q96D42).
T1 construct: endogenous in cells; host or cells: ACHN (ATCC CRL-1611); CAKI-2 (ATCC HTB-47)
T1 sequence (Q96D42 21-364): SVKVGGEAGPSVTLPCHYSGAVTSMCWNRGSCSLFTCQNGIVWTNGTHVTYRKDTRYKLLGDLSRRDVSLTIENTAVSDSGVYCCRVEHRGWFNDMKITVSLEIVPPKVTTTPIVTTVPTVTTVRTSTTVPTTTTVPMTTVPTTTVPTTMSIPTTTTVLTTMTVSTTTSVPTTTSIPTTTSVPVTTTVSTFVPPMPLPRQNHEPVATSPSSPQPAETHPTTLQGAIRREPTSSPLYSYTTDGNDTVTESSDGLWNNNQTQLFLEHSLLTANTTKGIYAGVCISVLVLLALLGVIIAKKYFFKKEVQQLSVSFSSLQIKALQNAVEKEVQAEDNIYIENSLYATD
In words: FACS analysis of antibody reactivity with membrane bound TIM-1 on ACHN renal cancer cells. The class given is binding.

In experiment [2] the target is T2, TIM-1 antigen expressed on CAKI-2 cells (Homo sapiens, UniProt Q96D42).
T2 construct: endogenous in cells; host or cells: ACHN (ATCC CRL-1611); CAKI-2 (ATCC HTB-47)
T2 sequence (Q96D42 21-364): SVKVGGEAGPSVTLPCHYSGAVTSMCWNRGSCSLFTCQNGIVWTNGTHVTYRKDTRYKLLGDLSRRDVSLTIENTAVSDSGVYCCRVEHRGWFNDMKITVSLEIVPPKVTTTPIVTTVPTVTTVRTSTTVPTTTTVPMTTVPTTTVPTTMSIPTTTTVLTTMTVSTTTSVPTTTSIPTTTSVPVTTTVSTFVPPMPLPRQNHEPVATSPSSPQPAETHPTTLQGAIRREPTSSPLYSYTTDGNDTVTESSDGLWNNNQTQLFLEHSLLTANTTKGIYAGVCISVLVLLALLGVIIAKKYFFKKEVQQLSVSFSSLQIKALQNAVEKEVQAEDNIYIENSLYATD
In words: FACS analysis of antibody reactivity with membrane bound TIM-1 on CAKI-2 renal cancer cells. Type of experiment: binding. In general terms: Flow cytometry measures light scatter and fluorescence of single cells or particles in a stream.

Experiment [3] concerns BT549 cells. Nature of the experiment: FACS analysis on antigen negative BT549 breast cancer cells (control). Type of experiment: binding, human.
Experiment [4] has as its system BT549 cells. Nature of the experiment: Antibody mediated toxin killing clonogenic assay (saporin conjugated secondary antibody), BT549. Particulars: 100 ng/mL primary mAb plus goat anti-human IgG-saporin secondary; antigen negative cells. The class given is cell-based. Here is the method:
A clonogenic assay as described in the art was used to determine whether primary antibodies can induce cancer cell death when used in combination with a saporin toxin conjugated secondary antibody reagent. Kohls and Lappi, Biotechniques, 28(1):162-5 (2000).
ACHN and BT549 cells were plated onto flat bottom tissue culture plates at a density of 3000 cells per well. On day 2 or when cells reached ˜25% confluency, 100 ng/well secondary mAb-toxin (goat anti-human IgG-saporin; Advanced Targeting Systems; HUM-ZAP; cat. no. IT-22) was added. A positive control anti-EGFR antibody, mAb 2.7.2, mAb 2.59.2, or an isotype control mAb was then added to each well at the desired concentration (typically 1 to 500 ng/mL). On day 5, the cells were trypsinized, transferred to a 150 mm tissue culture dish, and incubated at 37° C. Plates were examined daily. On days 10-12, all plates were Giemsa stained and colonies on the plates were counted. Plating efficiency was determined by comparing the number of cells prior to transfer to 150 mm plates to the number of colonies that eventually formed.
The percent viability in antigen positive ACHN and antigen negative BT549 cell lines are presented in FIG. 4 and FIG. 5 respectively.

Experiment [5] deals with BT549 cells. Nature of the experiment: Antibody toxin conjugate (Auristatin E) mediated killing clonogenic assay, BT549. The conditions noted are these: 1 to 1000 ng/ml, antigen negative cells. Type of experiment: cell-based, human.
For experiment [6], the target named is T3, TIM-1 protein on human CD4+ Th2 cells (Homo sapiens, UniProt Q96D42).
T3 construct: a major fraction of polarized human Th2 and Th1 cells do express TIM-1; endogenous in cells; host or cells: primary human CD4+ T cells from blood
T3 sequence (Q96D42 21-364): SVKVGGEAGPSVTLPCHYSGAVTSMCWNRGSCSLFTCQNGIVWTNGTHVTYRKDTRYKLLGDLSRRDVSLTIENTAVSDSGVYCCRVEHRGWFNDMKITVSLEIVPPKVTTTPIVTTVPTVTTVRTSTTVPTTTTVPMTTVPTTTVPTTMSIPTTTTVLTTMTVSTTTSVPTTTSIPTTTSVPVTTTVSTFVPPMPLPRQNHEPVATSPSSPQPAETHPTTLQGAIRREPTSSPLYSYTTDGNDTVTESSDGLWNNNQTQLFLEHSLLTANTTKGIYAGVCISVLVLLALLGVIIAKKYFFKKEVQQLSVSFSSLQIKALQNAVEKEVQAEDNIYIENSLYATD
In words: FACS analysis of expression of TIM-1 protein on human CD4+ Th2 cells. Type of experiment: binding. Particulars: Polarized Human CD4+ Th2 Cells.

Experiment [7] has as its target T4, TIM-1 on activated T cells (Homo sapiens, UniProt Q96D42).
T4 construct: a major fraction of polarized human Th2 and Th1 cells do express TIM-1; endogenous in cells; host or cells: primary human CD4+ T cells from blood
T4 sequence (Q96D42 21-364): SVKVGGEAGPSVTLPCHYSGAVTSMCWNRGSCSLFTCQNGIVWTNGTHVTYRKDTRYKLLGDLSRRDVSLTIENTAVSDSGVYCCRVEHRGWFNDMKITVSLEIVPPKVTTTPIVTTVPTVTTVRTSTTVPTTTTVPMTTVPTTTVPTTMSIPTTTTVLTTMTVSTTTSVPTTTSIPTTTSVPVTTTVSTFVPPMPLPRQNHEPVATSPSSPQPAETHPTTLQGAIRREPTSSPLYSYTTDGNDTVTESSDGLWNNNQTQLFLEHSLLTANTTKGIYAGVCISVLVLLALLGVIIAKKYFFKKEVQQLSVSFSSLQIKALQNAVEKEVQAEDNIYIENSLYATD
Nature of the experiment: FACS: percent of activated T cells that express TIM-1. Type of experiment: cell-based.

B1: mAb 2.70.2: monoclonal antibody 2.70 further subcloned and designated 2.70.2; SEQ ID NO: 50 and 52 in Table 1 (antibody)
heavy: QVQLVESGGGVVQPGRSLRLSCAASGFIFSRYGMHWVRQAPGKGLKWVAVIWYDGSNKLYADSVKGRFTISRDNSKNTLYLQMNSLRAEDTAVYYCARDYYDNSRHHWGFDYWGQGTLVTVSSASTKGPSVFPLAPCSRSTSESTAALGCLVKDYFPEPVTVSWNSGALTSGVHTFPAVLQSSGLYSLSSVVTVPSSSLGTKTYTCNVDHKPSNTKVDKRV[not shown - human IgG4 Fc]
light: DIVMTQTPLSLPVTPGEPASISCRSSRSLLDSDDGNTYLDWYLQKPGQSPQLLIYTLSYRASGVPDRFSGSGSGTDFTLKISRVEAEDVGVYYCMQRVEFPITFGQGTRLEIKRTVAAPSVFIFPPSDEQLKSGTASVVCLLNNFYPREAKVQWKVDNALQSGNSQESVTEQDSKDSTYSLSSTLTLSKADYEKHKVYACEVTHQGLSSPVTKSFNRGEC
On to B1, for which the “specific binding to TIM-1 antigen expressed on cells (FACS)” value in experiment [1] and in experiment [2] was “specifically bound” each time. Further, the “binding to antigen negative cells (FACS)” value in experiment [3] is “but not”. Besides, in experiment [4], the BT549 cell death is reported as 0%. Besides, the “effect on growth / survival of BT549 cells” value in experiment [5] was “did not affect the survival”. Further, in experiment [6], the “Geometric mean of fluorescence intensity” value was found to be 27.8. Further, the “Percent of activated T cells that express TIM-1” value is recorded as 1% in experiment [7] (Day 0, +MMPI); 1% in experiment [7] (Day 0, −MMPI); 10% in experiment [7] (Day 1, +MMPI); 8% in experiment [7] (Day 1, −MMPI); 14% in experiment [7] (Day 2, +MMPI); 10% in experiment [7] (Day 2, −MMPI). The “Percent of activated T cells that express TIM-1” value in experiment [7] (Day 4, +MMPI) was found to be 10%; in experiment [7] (Day 4, −MMPI), 5%; in experiment [7] (Day 5, +MMPI) it was 19%; in experiment [7] (Day 5, −MMPI), 13%.
